Results published in PubChem BioAssay AID504444 (National Center for Advancing Translational Sciences (NCATS), 2011).
Hit rate of the full screen: of about 360,000 compounds, about 7,500 (2.1%) were called active. Roughly 20% stayed inconclusive and do not appear here. The call rests on the fitted dose curve; in most records, active means well fitted inhibition curve with a large enough effect; inconclusive means small, poorly fitted or top-dose-only effect, or effect the other way; inactive means flat fitted curve, though single readings scatter. The list shows a part of the results, in another mix than the full data. The source holds several records for some structures; these can differ, active in one and inactive in another.

Assay: Nrf2 qHTS screen for inhibitors; further: nearly all actives have a fitted effect of over 60% in size
Conditions: A549 ARE-Fluc reporter, luciferase luminescence, 18-24 h; series mostly up to 46 µM; activity change, negative = inhibition: at the top concentration
Procedure, shortened: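 Two sequential reads on A549 ARE_Fluc cells exposed to compound for 18-24 h: a CellTiter-Fluor fluorescence read for viability, then a luciferase luminescence read for Nrf2/ARE activity.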
On the % scale 0 is the no-effect control and ±100 the full control effect; potency means the concentration at half of the fitted maximal effect.

Row | Structure (SMILES) | activity change, negative = inhibition | Potency
1 | COc1cccc(NC(=O)CSc2nc3ccccc3n2C)c1 | inactive: 3.34% | –
2 | C=CC[C@@H](CC(=O)NCCO)C(=O)N[C@@H](COC(=O)[C@@H](CC=C)Cc1ccc(F)cc1)Cc1ccccc1 | inactive: -5.86% | –
3 | O=C(COC(=O)c1cc([N+](=O)[O-])ccc1N1CCOCC1)Nc1ccc(Cl)cc1 | – | active: 18.4 µM
4 | CCn1c(C)cc(C(=O)COC(=O)c2ccccc2[N+](=O)[O-])c1C | – | active: 0.731 µM
5 | OCC[C@H]1C[C@H](O)[C@@H](O)[C@]2(Cc3ccccc3CO2)O1 | inactive: 5.74% | –
6 | C/C=C(/C)C(=O)OC1c2c(ccc3ccc(=O)oc23)OC(C)(C)C1OC(C)=O (stereo not given) | inactive: -25% | –
7 | CCSc1ccc([C@@H]2[C@@H]3C(=O)N(C)C(=O)[C@@H]3[C@]3(C(=O)OC)CCCCN23)cc1OC | inactive: -9.37% | –
8 | CCOc1ccc(CN(C(=O)c2cc(=O)c3cc(C)cc(C)c3o2)C2CCS(=O)(=O)C2)cc1 (stereo not given) | inactive: 2.24% | –
9 | CCCCOc1cc(C(=O)NCCN(CC)CC)c2ccccc2n1 | inactive: 6.03% | –
10 | O=c1c2ccccc2ncn1-c1ccc(Cl)cc1 | inactive: 17.1% | –
11 | COc1ccc(-n2c(=O)[nH]c3cc(C(=O)NCCc4ccccc4)ccc3c2=O)cc1OC | inactive: -19.7% [at 9.27 µM] | –
12 | O=C(N[C@H]1C/C=C\C[C@H](CC(=O)N(CCO)Cc2ccccc2)C(=O)NC[C@H](c2ccccc2)OC1=O)OCC1c2ccccc2-c2ccccc21 | inactive: -1.25% | –
13 | Cc1ccc(-n2ccn(CC(=O)NCCc3ccccc3)c(=O)c2=O)cc1C | inactive: 0.205% | –
14 | CC(C)Cn1cc(NC(=O)Nc2cccc(C(F)(F)F)c2)c2ccccc2c1=O | – | active: 23.1 µM
15 | O=S(=O)(c1ccc(Cl)cc1)N1CCN(c2ncnc3sccc23)CC1 | – | active: 20.6 µM
16 | O=C(NN1C(=O)/C(=C\c2cccnc2)SC1=S)C(c1ccccc1)c1ccccc1 | inactive: -27.6% | –
17 | C=Cc1ccc(Cn2nc(-c3ccc(C)cc3)ccc2=O)cc1 | inactive: 12.7% | –
18 | CCn1c(SCC(=O)N/N=C/C=C/c2ccco2)nc2ccccc21 | inactive: 9.64% | –
19 | Cc1ccccc1CNS(=O)(=O)c1csc(C(N)=O)c1 | inactive: 23.9% | –
20 | COc1ccccc1CNC(=O)C(CC(C)C)NS(=O)(=O)c1ccc2c(c1)oc(=O)n2C (stereo not given) | inactive: 5.55% | –
21 | CCC(=O)N1CCc2cc(S(=O)(=O)NCCC(=O)NCc3ccccc3Cl)ccc21 | inactive: -5.39% | –
22 | CCOC(=O)c1cnc2ccccc2c1NCCc1ccc(OC)c(OC)c1 | inactive: -18.9% | –
23 | O=C1CCN(CCc2ccccc2)CCN1[C@H](CSc1ccc(Br)cc1)Cc1ccccc1 | inactive: -12.4% | –

Row | Structure (SMILES) | activity change, negative = inhibition | Potency
24 | Cc1ccc(Nc2nc(N)nc(CSc3nc4ccccc4s3)n2)cc1 | inactive: -0.877% | –
25 | CCO[C@@H]1OC(C(=O)N2CCN(Cc3ccc4c(c3)OCO4)CC2)=C[C@H](C2CC2)[C@H]1CCCO | inactive: 12.1% | –
26 | Cc1ccc(CS(=O)(=O)c2ncc(Cl)c(C(=O)Nc3nnc(C(C)C)s3)n2)cc1 | inactive: 0.49% | –
27 | O=C1OC[C@H]2CCCN2C(=O)[C@@H](CC(=O)N(CCO)Cc2ccccc2)C/C=C\CC[C@@H]1Cc1ccc(F)cc1 | inactive: -8.44% | –
28 | Cc1ccccc1C(=O)c1cccn1CC(=O)NCc1ccc(Cl)cc1 | inactive: 9.82% | –
29 | COc1cc(F)c(S(=O)(=O)N2CCCN(S(=O)(=O)c3cccc(N)c3)CC2)c(F)c1 | inactive: -18.7% | –
30 | COc1ccc(CNC(=O)Cn2nc(C)n3cccc3c2=O)cc1 | inactive: 13.7% | –
31 | COc1cc(C(CCN2CCN(c3ccccc3)CC2)c2c(OC)cc(OC)c3ccc(=O)oc23)cc(OC)c1OC (stereo not given) | inactive: 4.59% | –
32 | Cc1cc2[nH]c(=O)c(=O)[nH]c2cc1S(=O)(=O)N1CCN(c2ccccc2)CC1 | inactive: 13.3% | –
33 | N#C/C(=C\c1cccs1)c1nc2ccccc2[nH]1 | inactive: 27.5% | –
34 | CCO[C@H]1OC(C(=O)NCc2ccccc2)=C[C@@H](c2cn(C(C)=O)c3ccccc23)[C@@H]1CCCO | inactive: -21.5% | –
35 | O=C(Nc1ccccc1)C1=C[C@H](c2ccc(C(F)(F)F)cc2)C[C@H](OCc2ccc(CO)cc2)O1 | inactive: -24.4% | –
36 | CC(Oc1ccc2c(-c3ccccc3)cc(=O)oc2c1)C(=O)NCC1CCC(C(=O)O)CC1 (stereo not given) | inactive: -0.103% | –
37 | O=C(NCC1CCOCC1)c1cc(COc2cccc(C(F)(F)F)c2)on1 | – | active: 23.1 µM
38 | Cc1ccc2[nH]c3c(=O)n(CC(=O)NCc4ccco4)ncc3c2c1 | inactive: 0.517% | –
39 | CSc1nc2nccc(-c3ccc(Oc4ccccc4)cc3)n2n1 | – | active: 18.4 µM
40 | Cn1nc(C(=O)NCc2ccccc2)c2c1-c1ccccc1S(=O)(=O)C2 | inactive: -18.8% | –
41 | O=C1NC[C@@H](c2ccccc2)OC(=O)[C@@H](Cc2ccc(F)cc2)CC/C=C/C[C@@H]1CC(=O)N(CCO)Cc1ccccc1 | inactive: -11.1% | –
42 | Cc1c(Cl)cccc1NC(=O)Nc1ccc2snnc2c1 | – | active: 20.6 µM
43 | Cc1cccc(CSc2ccc(-c3cccs3)nn2)c1 | inactive: 16.7% | –
44 | O=C(N/C(=C/c1cccc([N+](=O)[O-])c1)C(=O)N1CCCCC1)c1cccs1 | inactive: -0.432% | –
45 | O=C(N[C@@H]1C/C=C\C[C@@H](CC(=O)N(CCO)Cc2ccccc2)C(=O)N[C@H](Cc2ccccc2)COC1=O)OCC1c2ccccc2-c2ccccc21 | inactive: -2.23% | –
46 | COc1cc(O)c(C(CC(=O)N2CCN(c3ccccc3)CC2)c2ccc(N(C)C)cc2)c(OC)c1 (stereo not given) | inactive: -5.22% | –

Row | Structure (SMILES) | activity change, negative = inhibition | Potency
47 | O=C(Nc1cccc(-c2nnc(-c3ccccc3)o2)c1)c1ccc(Br)o1 | – | active: 23.1 µM
48 | COc1ccc(NC(=O)CN(C)S(=O)(=O)c2cnc[nH]2)cc1Cl | inactive: 9.53% | –
49 | O=C(O)c1ccc(NC(=O)c2cn(-c3ccccc3)nc2-c2ccc(Br)cc2)cc1 | inactive: -18.5% | –
50 | C[C@H]1CCC[C@@]2(O[C@@H](CCO)C[C@@H](O)[C@@H]2O)O1 | inactive: -10.8% | –
51 | Nc1nncn1C(=O)c1ccc(Cl)cc1Cl | – | active: 1.64 µM
52 | O=C1c2ccccc2NC(c2cccc(O)c2)N1Cc1ccco1 (stereo not given) | inactive: 0.957% | –
53 | O=C(Cn1cnc(S(=O)(=O)N2CCCC2)c1)Nc1ccccc1 | inactive: 16.7% | –
54 | CCC(C)NC(=O)c1cn(CC)c2ccc(S(=O)(=O)N3CCCCC3)cc2c1=O (stereo not given) | inactive: 6.4% | –
55 | Cc1cccn2c(=O)c3cc(C#N)c(=NC(=O)c4ccccc4)n(Cc4ccco4)c3nc12 | inactive: -26.2% | –
56 | CC(=O)OC(COc1ccccc1)Cn1cnc2cc(C)c(C)cc21 (stereo not given) | inactive: -29.6% | –
57 | CC(C)N(Cc1ccccc1)C(=O)CN1C(=O)COc2ccc(S(=O)(=O)NC3CCCC3)cc21 | inactive: 1.61% | –
58 | O=S1(=O)Nc2c(ccc3cccnc23)-c2ccccc21 | inactive: -24.2% | –
59 | COc1ccc(CNC(=O)c2nnn(CC(=O)Nc3cc(C)cc(C)c3)c2N)cc1 | inactive: 2.91% | –
60 | COc1ccc(NC(=O)/C(C#N)=C/c2cc(C)n(-c3ccc(N4CCOCC4)c([N+](=O)[O-])c3)c2C)cc1 | – | active: 6.51 µM
61 | CC(=O)Nc1ccc(S(=O)(=O)Nc2ccc3nc(C)sc3c2)cc1 | – | active: 16.4 µM
62 | CCCNC(=O)c1cc(S(=O)(=O)N2CCc3ccccc32)cn1C | – | active: 11.6 µM
63 | CCOC(=O)[C@H](CCc1ccccc1)N[C@@H](C)C(=O)N1CCC[C@H]1C(=O)O | inactive: -12.3% | –
64 | O=C1CCc2cc(S(=O)(=O)Nc3ccc(F)cc3)ccc2N1 | inactive: 3.15% | –
65 | CCOC(=O)C1CCCN(C(=O)c2ccc3c(c2)N(Cc2ccccc2)C(=O)c2ccccc2S3=O)C1 (stereo not given) | inactive: 7.28% | –
66 | O=C(CCCN1C(=O)/C(=C/c2ccccc2Cl)SC1=S)NNC(=O)c1ccc(Cl)cc1Cl | – | active: 6.51 µM
67 | Cc1ccc[n+](CC2OCc3ccccc3CO2)c1 | – | active: 7.31 µM
68 | CCOc1ccccc1NC(=O)C(CC(C)C)NC(=O)C1CCC(C)CC1 (stereo not given) | inactive: 5.79% [at 9.27 µM] | –
69 | Cc1ccc(NC(=O)CCc2c(C)nn(-c3ccc(N4CCOCC4)nn3)c2C)c(C)c1 | inactive: -7.29% | –

Row | Structure (SMILES) | activity change, negative = inhibition | Potency
70 | C[C@]12CC[C@@H]3c4ccc(O)cc4CC[C@H]3[C@@H]1C[C@@H](O)[C@@H]2O | inactive: -9.28% | –
71 | C=CCC[C@H](Cc1ccc(F)cc1)C(=O)OC[C@@H](C)NC(=O)[C@@H](CC=C)CC(=O)N[C@@H](CO)Cc1ccccc1 | inactive: -9.12% | –
72 | O=C(Nc1ccc(Br)cc1)c1cccc(S(=O)(=O)Nc2ccccn2)c1 | – | active: 13 µM
73 | COc1ccc(OCc2nc3ccccc3n2C(C)C)cc1 | – | active: 23.1 µM
74 | Cn1nnnc1Sc1ncnc2scc(-c3ccccc3)c12 | inactive: -5.74% | –
75 | COc1ccc(NC(=O)c2ccco2)cc1NC(=O)c1ccc(C#N)cc1F | inactive: -0.257% | –
76 | CC(C)(C)OC(=O)C[C@@H]1C/C=C\C[C@@H](CC(=O)N(CCO)Cc2ccccc2)C(=O)NC[C@@H](c2ccccc2)OC1=O | inactive: -3.95% | –
77 | COC(=O)N1C(=O)[C@](c2ccc(OC)cc2)(C(C)C)N1C(=O)OC | inactive: -7.33% | –
78 | Cc1ccc(NC(=O)c2ccc3snnc3c2)cc1C | inactive: 19% | –
79 | Cc1ccc(C)c(N2CCN(C(=O)CCCOc3cc(=O)n(C)c4ccccc34)CC2)c1 | – | active: 23.1 µM
80 | COc1ccc(-c2ccc(C)cc2)cc1C1C2C=CCCC2(C)C(=O)N1Cc1ccccc1 (stereo not given) | inactive: -24.5% | –
81 | CCN(C(=O)CN1C(=O)COc2ccc(S(=O)(=O)N3CCOCC3)cc21)c1ccc(OC)cc1 | inactive: 0% | –
82 | Cc1ccc(C(=O)C2CCN(C(=O)c3ccc(C)cc3)CC2)cc1 | – | active: 23.1 µM
83 | Cc1cc(Cl)c(S(=O)(=O)NC2CCCC2)cc1OCC(=O)NC1CCCCC1 | – | active: 6.51 µM
84 | CC(=O)/C(=C\N(C)C)Sc1ccc(C)cc1 | inactive: 4.2% | –
85 | CCOC(=O)[C@@H]1[C@H]2COc3cc(OC)ccc3[C@@H]2N2C(=O)N(c3ccc(C(F)(F)F)cc3)C(=O)[C@]12C | inactive: 29.9% | –
86 | Cc1c(C(=O)N2CCN(c3ccccc3)CC2)sc2nc3n(c(=O)c12)CCC3 | inactive: -20.5% | –
87 | Cc1ccc(NC(=O)CSc2nc3ccccc3nc2N2CCOCC2)cc1 | inactive: -0.743% | –
88 | CCOC(=O)c1ccc(N=c2sc(C(=O)OC)cc(=O)n2CCCN2CCOCC2)cc1 | inactive: 4.53% | –
89 | O=C(CSc1nc2nn(-c3ccccc3)c(=O)c-2c2n1CCCCC2)Nc1ccc(F)c(F)c1 | – | active: 18.4 µM
90 | Cc1cc2oc(=O)cc(CSc3nnc(-c4cccs4)o3)c2cc1C(C)C | – | active: 8.2 µM
